Data published in a compilation of properties of binary mixtures (doi:10.1007/s10973-015-4753-3).
The densities may have been worked out from excess volumes.

Assay: xn = mol fraction of the nth substance listed
Conditions: 298.15 K, 100 kPa

CCC(=O)[O-].CC[NH3+] + O
Conditions | mass density [kg/m3]
x2 = 0.105 | 990.1
x2 = 0.179 | 992.5
x2 = 0.284 | 996
x2 = 0.376 | 1000
x2 = 0.5 | 1005.9
x2 = 0.602 | 1012
x2 = 0.675 | 1017

CCCC(=O)[O-].CC[NH3+] + O
Conditions | mass density [kg/m3]
x2 = 0 | 962
x2 = 0.289 | 970.6
x2 = 0.395 | 974.8
x2 = 0.503 | 980.1
x2 = 0.599 | 986
x2 = 0.669 | 991.1
x2 = 0.802 | 1003.5

CC[NH3+].O=C[O-] + O
Conditions | mass density [kg/m3]
x2 = 0 | 1033.5
x2 = 0.095 | 1035.4
x2 = 0.166 | 1036.9
x2 = 0.282 | 1039.5
x2 = 0.375 | 1041.7
x2 = 0.614 | 1047
x2 = 0.668 | 1047.7
x2 = 0.8 | 1045.5
x2 = 0.91 | 1031.8
